{"source": "paper PMC4242493", "note": "This is one part of the list. The list includes weakly bound sequences."}
{"molecular_target": "MaxL homodimer (UniProt P61244)", "sequence (P61244 whole entry)": "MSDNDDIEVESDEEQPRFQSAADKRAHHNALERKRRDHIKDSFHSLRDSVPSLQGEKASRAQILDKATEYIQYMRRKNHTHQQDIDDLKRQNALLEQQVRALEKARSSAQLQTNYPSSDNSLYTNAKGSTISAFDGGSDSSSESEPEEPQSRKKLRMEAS", "experiment": "universal protein-binding microarray (PBM)", "details": "PBS-based mixture, 10 nM His-tagged protein dimer, 2% milk, 200 ng/uL BSA, 50 ng/uL salmon testes DNA, 0.02% TX-100; detection with Alexa 488 anti-His …; high values mean tight binding; most listed sequences are background and not binding sites; double strand, one strand shown"}
{"sequence": "GGAGGGGA", "binding signal (normalized occupancy)": 0.0711}
{"sequence": "ACTTTTAA", "binding signal (normalized occupancy)": 0.0712}
{"sequence": "TCTCCAGA", "binding signal (normalized occupancy)": 0.0693}
{"sequence": "CAATATGA", "binding signal (normalized occupancy)": 0.0822}
{"sequence": "ACCCACCC", "binding signal (normalized occupancy)": 0.0857}
{"sequence": "ATTTTCTC", "binding signal (normalized occupancy)": 0.0747}
{"sequence": "CCCATTAC", "binding signal (normalized occupancy)": 0.0777}
{"sequence": "CATATATA", "binding signal (normalized occupancy)": 0.0904}
{"sequence": "ATATGCGG", "binding signal (normalized occupancy)": 0.085}
{"sequence": "GACCCCTA", "binding signal (normalized occupancy)": 0.0761}
{"sequence": "GCATTATA", "binding signal (normalized occupancy)": 0.0841}
{"sequence": "ATGTTCCG", "binding signal (normalized occupancy)": 0.0732}
{"sequence": "ATCACAAG", "binding signal (normalized occupancy)": 0.0826}
{"sequence": "AATGAGAA", "binding signal (normalized occupancy)": 0.072}
{"sequence": "AGCTCCGG", "binding signal (normalized occupancy)": 0.071}
{"sequence": "ACCATGCA", "binding signal (normalized occupancy)": 0.0972}
{"sequence": "AGACCCGG", "binding signal (normalized occupancy)": 0.0703}
{"sequence": "TACTGACA", "binding signal (normalized occupancy)": 0.0743}
{"sequence": "TCATCGGA", "binding signal (normalized occupancy)": 0.0748}
{"sequence": "AGAGTAAT", "binding signal (normalized occupancy)": 0.072}
{"sequence": "ACCCTACA", "binding signal (normalized occupancy)": 0.0836}
{"sequence": "GGGCCCTA", "binding signal (normalized occupancy)": 0.0705}
{"sequence": "ACGGTTCC", "binding signal (normalized occupancy)": 0.0706}
{"sequence": "ACTTGAGA", "binding signal (normalized occupancy)": 0.075}
{"sequence": "ACGTCCCT", "binding signal (normalized occupancy)": 0.0811}
{"sequence": "AAATCCGT", "binding signal (normalized occupancy)": 0.0746}
{"sequence": "CATCATCA", "binding signal (normalized occupancy)": 0.0814}
{"sequence": "ATAGCCAC", "binding signal (normalized occupancy)": 0.0774}
{"sequence": "CCTTAAAC", "binding signal (normalized occupancy)": 0.071}
{"sequence": "CTGCGCGC", "binding signal (normalized occupancy)": 0.0677}
{"sequence": "GCGGATAA", "binding signal (normalized occupancy)": 0.0755}
{"sequence": "CCCGGACG", "binding signal (normalized occupancy)": 0.0693}
{"sequence": "CGAAGGTA", "binding signal (normalized occupancy)": 0.0721}
{"sequence": "AGGTGTAT", "binding signal (normalized occupancy)": 0.0924}
{"sequence": "AGCCCTCC", "binding signal (normalized occupancy)": 0.0723}
{"sequence": "AGTTCGAG", "binding signal (normalized occupancy)": 0.0741}
{"sequence": "GGCAAAGA", "binding signal (normalized occupancy)": 0.069}
{"sequence": "GAGCTCCC", "binding signal (normalized occupancy)": 0.0719}
{"sequence": "GGTTAAAA", "binding signal (normalized occupancy)": 0.074}
{"sequence": "ATAGATGA", "binding signal (normalized occupancy)": 0.0839}
{"sequence": "CCGCGCAC", "binding signal (normalized occupancy)": 0.0818}
{"sequence": "AGATCCAT", "binding signal (normalized occupancy)": 0.0807}
{"sequence": "CGGGTACG", "binding signal (normalized occupancy)": 0.0725}
{"sequence": "CCCACTTA", "binding signal (normalized occupancy)": 0.0731}
{"sequence": "AGGGTAGA", "binding signal (normalized occupancy)": 0.0739}
{"sequence": "GTATGCAC", "binding signal (normalized occupancy)": 0.0856}
{"sequence": "AGACACTG", "binding signal (normalized occupancy)": 0.0732}
{"sequence": "CAGCCTTC", "binding signal (normalized occupancy)": 0.0653}
{"sequence": "CCCCATGC", "binding signal (normalized occupancy)": 0.107}
{"sequence": "GTAGTCAC", "binding signal (normalized occupancy)": 0.0739}
{"sequence": "GACTTCGA", "binding signal (normalized occupancy)": 0.0753}
{"sequence": "ACGTCTGC", "binding signal (normalized occupancy)": 0.0758}
{"sequence": "AAAGTGAT", "binding signal (normalized occupancy)": 0.075}
{"sequence": "ATCTATGG", "binding signal (normalized occupancy)": 0.0809}
{"sequence": "CTAATGTA", "binding signal (normalized occupancy)": 0.078}
{"sequence": "CAACGAGA", "binding signal (normalized occupancy)": 0.0767}
{"sequence": "ACACGCAC", "binding signal (normalized occupancy)": 0.0931}
{"sequence": "GGCGCACA", "binding signal (normalized occupancy)": 0.0793}
{"sequence": "AGTGGTAC", "binding signal (normalized occupancy)": 0.0769}
{"sequence": "CCGCCCGA", "binding signal (normalized occupancy)": 0.0697}
{"sequence": "GCGACGAC", "binding signal (normalized occupancy)": 0.0733}
{"sequence": "CGCAGTCC", "binding signal (normalized occupancy)": 0.0666}
{"sequence": "AGATAAAA", "binding signal (normalized occupancy)": 0.0769}
{"sequence": "AGTCCGTA", "binding signal (normalized occupancy)": 0.0727}
{"sequence": "AGATTAGC", "binding signal (normalized occupancy)": 0.0753}
{"sequence": "GCATCGCC", "binding signal (normalized occupancy)": 0.0665}
{"sequence": "GTGTCGCA", "binding signal (normalized occupancy)": 0.078}
{"sequence": "GACCCCAC", "binding signal (normalized occupancy)": 0.0809}
{"sequence": "ATACCGCC", "binding signal (normalized occupancy)": 0.0743}
{"sequence": "CTCTTGCC", "binding signal (normalized occupancy)": 0.0699}
{"sequence": "AGGCGCAC", "binding signal (normalized occupancy)": 0.082}
{"sequence": "ACCACGGC", "binding signal (normalized occupancy)": 0.0743}
{"sequence": "CATCAATA", "binding signal (normalized occupancy)": 0.0852}
{"sequence": "CTCCGAGC", "binding signal (normalized occupancy)": 0.0709}
{"sequence": "ATCTATTC", "binding signal (normalized occupancy)": 0.0842}
{"sequence": "AGTCTGGC", "binding signal (normalized occupancy)": 0.0663}
{"sequence": "ACACATGA", "binding signal (normalized occupancy)": 0.107}
{"sequence": "GTCTAGGA", "binding signal (normalized occupancy)": 0.0723}
{"sequence": "AGTAGGGC", "binding signal (normalized occupancy)": 0.0686}
{"sequence": "AGAGTGCC", "binding signal (normalized occupancy)": 0.0774}
{"sequence": "CACCCTGG", "binding signal (normalized occupancy)": 0.0757}
{"sequence": "CACACTCA", "binding signal (normalized occupancy)": 0.0754}
{"sequence": "GCACTGGA", "binding signal (normalized occupancy)": 0.066}
{"sequence": "ATAGGACA", "binding signal (normalized occupancy)": 0.0791}
{"sequence": "ACTGGGGC", "binding signal (normalized occupancy)": 0.0709}
{"sequence": "ATATAAAT", "binding signal (normalized occupancy)": 0.0765}
{"sequence": "TACACCTA", "binding signal (normalized occupancy)": 0.0789}
{"sequence": "CGCGCCTC", "binding signal (normalized occupancy)": 0.0733}
{"sequence": "CCGCGTGC", "binding signal (normalized occupancy)": 0.145}
{"sequence": "CCCAGTCG", "binding signal (normalized occupancy)": 0.0698}
{"sequence": "AGATAGGC", "binding signal (normalized occupancy)": 0.078}
{"sequence": "ATTAAATA", "binding signal (normalized occupancy)": 0.0778}
{"sequence": "CGTACTGA", "binding signal (normalized occupancy)": 0.0729}
{"sequence": "CCGTCAAA", "binding signal (normalized occupancy)": 0.0691}
{"sequence": "CGATGCAG", "binding signal (normalized occupancy)": 0.0742}
{"sequence": "ATGTTCGC", "binding signal (normalized occupancy)": 0.077}
{"sequence": "ACAGTTAC", "binding signal (normalized occupancy)": 0.0737}
{"sequence": "CCCGTCAG", "binding signal (normalized occupancy)": 0.0731}
{"sequence": "GGCGGCCC", "binding signal (normalized occupancy)": 0.0729}
{"sequence": "ACGTCGCT", "binding signal (normalized occupancy)": 0.0755}
{"sequence": "ATTCATGC", "binding signal (normalized occupancy)": 0.0905}
{"sequence": "CTACGGGA", "binding signal (normalized occupancy)": 0.0733}
{"sequence": "CCGGCCGG", "binding signal (normalized occupancy)": 0.0626}
{"sequence": "CAGCCGAG", "binding signal (normalized occupancy)": 0.0665}
{"sequence": "AACCCTAA", "binding signal (normalized occupancy)": 0.0715}
{"sequence": "CTCTCATA", "binding signal (normalized occupancy)": 0.0864}
{"sequence": "GGTCGACC", "binding signal (normalized occupancy)": 0.0724}
{"sequence": "CCACTTAG", "binding signal (normalized occupancy)": 0.0706}
{"sequence": "ACGCATTA", "binding signal (normalized occupancy)": 0.0813}
{"sequence": "GAGCGCGC", "binding signal (normalized occupancy)": 0.0806}
{"sequence": "AATAGCGA", "binding signal (normalized occupancy)": 0.0756}
{"sequence": "CCATTATA", "binding signal (normalized occupancy)": 0.084}
{"sequence": "AGTGTCTA", "binding signal (normalized occupancy)": 0.0734}
{"sequence": "CTGGTAAC", "binding signal (normalized occupancy)": 0.079}
{"sequence": "CGCACTGA", "binding signal (normalized occupancy)": 0.0735}
{"sequence": "AGAAATTA", "binding signal (normalized occupancy)": 0.0722}
{"sequence": "CTACCAGC", "binding signal (normalized occupancy)": 0.0702}
{"sequence": "GGTCTCCA", "binding signal (normalized occupancy)": 0.0758}
{"sequence": "GCATTTCC", "binding signal (normalized occupancy)": 0.0731}
{"sequence": "GGAGGATA", "binding signal (normalized occupancy)": 0.083}
{"sequence": "AGGCGTAT", "binding signal (normalized occupancy)": 0.0765}
{"sequence": "CGGTATCC", "binding signal (normalized occupancy)": 0.0742}
{"sequence": "ATACAGCA", "binding signal (normalized occupancy)": 0.0878}
{"sequence": "GAGGCCAA", "binding signal (normalized occupancy)": 0.0753}
{"sequence": "CATACAAC", "binding signal (normalized occupancy)": 0.0839}
{"sequence": "AGAACGCC", "binding signal (normalized occupancy)": 0.0718}
{"sequence": "GATTGTCC", "binding signal (normalized occupancy)": 0.0701}
{"sequence": "CCGAGAGC", "binding signal (normalized occupancy)": 0.0704}
{"sequence": "TACACCAA", "binding signal (normalized occupancy)": 0.0763}
{"sequence": "ACGCTGAG", "binding signal (normalized occupancy)": 0.0804}
{"sequence": "AGGCATAC", "binding signal (normalized occupancy)": 0.076}
{"sequence": "AACAGGCA", "binding signal (normalized occupancy)": 0.0786}
{"sequence": "CTGCCGTA", "binding signal (normalized occupancy)": 0.0736}
{"sequence": "GGGGGACA", "binding signal (normalized occupancy)": 0.0784}
{"sequence": "CGCTAAGA", "binding signal (normalized occupancy)": 0.0782}
{"sequence": "ATATCAGC", "binding signal (normalized occupancy)": 0.0751}
{"sequence": "TGTGCGAA", "binding signal (normalized occupancy)": 0.0731}
{"sequence": "GGATCCCA", "binding signal (normalized occupancy)": 0.0774}
{"sequence": "ATATCATC", "binding signal (normalized occupancy)": 0.0869}
{"sequence": "AAGGATTA", "binding signal (normalized occupancy)": 0.0734}
{"sequence": "AGCCCGGA", "binding signal (normalized occupancy)": 0.0629}
{"sequence": "AAATACAT", "binding signal (normalized occupancy)": 0.0829}
{"sequence": "CACGTGCC", "binding signal (normalized occupancy)": 0.521}
{"sequence": "ATATCATG", "binding signal (normalized occupancy)": 0.093}
{"sequence": "AAAGTAAC", "binding signal (normalized occupancy)": 0.0747}
{"sequence": "AGCTAGGA", "binding signal (normalized occupancy)": 0.0692}
{"sequence": "CTGAGATA", "binding signal (normalized occupancy)": 0.0736}
{"sequence": "AGAATTCT", "binding signal (normalized occupancy)": 0.0715}
{"sequence": "CGTATTCC", "binding signal (normalized occupancy)": 0.0751}
{"sequence": "GTACGAGA", "binding signal (normalized occupancy)": 0.0724}
{"sequence": "GAGGACGA", "binding signal (normalized occupancy)": 0.0703}
{"sequence": "CATAGTGC", "binding signal (normalized occupancy)": 0.0754}
{"sequence": "CCCATAGC", "binding signal (normalized occupancy)": 0.0774}
{"sequence": "TTCGAAAA", "binding signal (normalized occupancy)": 0.077}
{"sequence": "CAGTCGTC", "binding signal (normalized occupancy)": 0.0678}
{"sequence": "GAGTCTGC", "binding signal (normalized occupancy)": 0.0711}
{"sequence": "TAATGCTA", "binding signal (normalized occupancy)": 0.0758}
{"sequence": "GTGGTATA", "binding signal (normalized occupancy)": 0.0899}
{"sequence": "CTGTCTGC", "binding signal (normalized occupancy)": 0.0697}
{"sequence": "AACTTGGG", "binding signal (normalized occupancy)": 0.0764}
{"sequence": "CATAAGCG", "binding signal (normalized occupancy)": 0.0812}
{"sequence": "CTCTCGGA", "binding signal (normalized occupancy)": 0.074}
{"sequence": "CTTGTATA", "binding signal (normalized occupancy)": 0.0751}
{"sequence": "ACGCCTCA", "binding signal (normalized occupancy)": 0.0786}
{"sequence": "CAACTGTG", "binding signal (normalized occupancy)": 0.07}
{"sequence": "GCACCTCC", "binding signal (normalized occupancy)": 0.068}
{"sequence": "CTCCGCCA", "binding signal (normalized occupancy)": 0.0692}
{"sequence": "CGGTCCAC", "binding signal (normalized occupancy)": 0.0732}
{"sequence": "GGGAGGAA", "binding signal (normalized occupancy)": 0.0758}
{"sequence": "CCACTGAG", "binding signal (normalized occupancy)": 0.0735}
{"sequence": "GAGTCGAA", "binding signal (normalized occupancy)": 0.0727}
{"sequence": "CTACCGAG", "binding signal (normalized occupancy)": 0.0731}
